Test results published in article PMC4336329 (PLoS ONE, 2015).
About 2,200 (0.71%) of roughly 310,000 compounds showed an effect of 50% or more. The effect is printed as a negative number. Some of the results follow.

target: human ether-à-go-go-related gene (hERG) potassium channel (human, UniProt Q12809); experiment: primary screen, population patch clamp on CHO cells stably expressing hERG
Sequence (Q12809 whole entry, looked up): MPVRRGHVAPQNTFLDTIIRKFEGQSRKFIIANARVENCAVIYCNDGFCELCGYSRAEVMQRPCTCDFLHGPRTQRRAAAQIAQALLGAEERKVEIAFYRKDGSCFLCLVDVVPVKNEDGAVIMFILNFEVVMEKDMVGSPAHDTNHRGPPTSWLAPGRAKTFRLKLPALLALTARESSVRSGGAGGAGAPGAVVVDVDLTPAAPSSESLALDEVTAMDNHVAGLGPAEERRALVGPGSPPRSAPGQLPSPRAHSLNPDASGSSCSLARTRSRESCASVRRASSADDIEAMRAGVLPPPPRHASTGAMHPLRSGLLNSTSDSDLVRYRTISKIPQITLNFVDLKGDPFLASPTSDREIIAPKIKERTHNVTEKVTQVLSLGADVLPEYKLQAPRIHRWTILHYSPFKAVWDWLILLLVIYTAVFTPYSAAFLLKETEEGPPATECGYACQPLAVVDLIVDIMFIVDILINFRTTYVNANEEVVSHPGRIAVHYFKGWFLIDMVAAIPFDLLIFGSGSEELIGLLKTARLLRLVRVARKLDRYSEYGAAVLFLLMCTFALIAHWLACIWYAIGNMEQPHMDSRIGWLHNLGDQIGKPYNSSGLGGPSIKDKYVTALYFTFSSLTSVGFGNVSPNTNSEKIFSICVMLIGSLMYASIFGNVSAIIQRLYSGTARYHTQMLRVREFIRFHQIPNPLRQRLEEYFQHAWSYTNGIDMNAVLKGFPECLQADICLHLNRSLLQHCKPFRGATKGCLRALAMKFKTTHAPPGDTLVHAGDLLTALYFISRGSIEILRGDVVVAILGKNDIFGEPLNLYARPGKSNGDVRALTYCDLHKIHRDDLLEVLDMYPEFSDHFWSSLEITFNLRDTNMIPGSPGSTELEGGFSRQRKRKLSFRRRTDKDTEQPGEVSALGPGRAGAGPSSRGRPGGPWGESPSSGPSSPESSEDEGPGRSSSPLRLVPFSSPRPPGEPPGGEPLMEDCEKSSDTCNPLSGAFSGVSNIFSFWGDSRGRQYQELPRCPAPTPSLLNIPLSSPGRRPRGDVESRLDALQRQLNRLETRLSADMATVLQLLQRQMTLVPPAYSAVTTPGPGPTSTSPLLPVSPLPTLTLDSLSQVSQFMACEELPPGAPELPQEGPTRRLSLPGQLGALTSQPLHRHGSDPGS

In order of falling “hERG current change (%, negative = inhibition) at 1uM” value:
1. Cc1ccn2c(CNCC3COCCO3)c(C(=O)N3CCCCCC3)nc2c1 (centres unmarked)  31.3%
2. Cc1cccc(/C=N/NC(=O)c2ccc(NC(=O)c3ccccc3Cl)cc2)n1  23.4%
3. CCc1ccc(NC(=O)c2noc3c2CCC3)cc1  21%
4. O=C(Cc1ccccc1)NCc1n[nH]c(=S)n1-c1ccccc1  20.5%
5. COc1ccccc1N1CCN(C(c2ccc(N(C)C)cc2)c2nnnn2CCc2ccccc2)CC1 (centres unmarked)  19%
6. CCc1cccc(OCC(O)Cn2c(N3CCCCC3)nc3c2c(=O)[nH]c(=O)n3C)c1 (centres unmarked)  17.9%
7. CC(NC(=O)c1ccc2c(c1)C(=O)N(Cc1cccnc1)C2=O)c1ccccc1 (centres unmarked)  17.4%
8. CCN(CC)CCCNC(=O)Cn1ncn2cccc2c1=O  17.3%
9. CCCc1cc(=O)[nH]c2nnc(SCC(=O)N3CC(C)OC(C)C3)n12 (centres unmarked)  16.2%
10. CCC(C)N(C)C1CCN(C(=S)Nc2cccc(OC)c2)CC1 (centres unmarked)  15.9%
11. O=C(Cc1c(F)cccc1Cl)NCCc1c[nH]c2ccccc12  15.5%
12. CC1CCN(S(=O)(=O)c2ccc3c4c2CC(=O)N4CC(C)S3)CC1 (centres unmarked)  15.5%
13. CCOC(=O)CCc1c(C)nc2cc(C3CCCN(C(=O)OC(C)(C)C)C3)[nH]n2c1=O (centres unmarked)  15.4%
14. C#CCOCCOCCOCCNc1nc(N2CCN(C(=O)[C@H](C)n3cc(CCC[NH+]=C(N)N)nn3)CC2)nc(N2CCN(C(=O)[C@H](Cc3ccc(O)cc3)n3cc(CCO)nn3)CC2)n1.[Cl-]  15.2%
15. CCN(CC)S(=O)(=O)c1ccc(OC)c(NC(=O)c2cc(C)on2)c1  15.1%
16. COc1ccccc1CCC(=O)N1CCC(n2nccc2NC(=O)C2CCOC2)CC1 (centres unmarked)  15%
17. O=C1C[C@@H]2c3c(cccc3CN1Cc1ccc(F)cc1)C[C@@H](O)[C@H]2O  14.8%
18. CCCc1nnc(NC(=O)CCC(=O)Nc2ccc(Cl)cc2)s1  14.7%
19. S=C(NCCCN1CCOCC1)NC1CCCC1  14.5%
20. COc1ccc(NC(=O)COC(=O)CNS(=O)(=O)/C=C/c2ccccc2)cc1OC  14.2%
21. CC(C)(C)/C(O)=C/c1nc2ccccc2oc1=O  13.8%
22. O=C(Nc1cscc1S(=O)(=O)c1ccc(Cl)cc1)c1ccccc1Cl  13.6%
23. CCOc1ccc(NC(=O)c2cc3ccccc3cc2O)cc1  13.5%
24. CCOC(=O)c1oc2nc(CC(C)C)c3c(c2c1N)CCCC3  13.1%
25. CC(=O)c1c(C)n(-c2ccccc2Br)c2ccc(O)cc12  13%
26. Cc1cccc(NC(=O)Cn2nnc3sc4c(c3c2=O)CC(C)(C)OC4)c1  13%
27. COC(=O)c1cc(NC(=O)c2ccco2)ccc1N1CCOCC1  12.4%
28. COc1ccc(/C=N/NC(=O)c2ccco2)cc1COc1ccc(F)cc1  12.3%
29. CCn1c(=O)c2sccc2n(CC(=O)NC2CCCCC2)c1=O  12.3%
30. CCOc1ccc2ccccc2c1/C=N/NC(=O)CNC(=O)C(c1ccccc1)c1ccccc1  12.2%
31. CCOC(=O)C(CC)n1cnc2c(nnn2-c2cccc(OC)c2)c1=O (centres unmarked)  12%
32. COc1ccc(/C=C/C(=O)NC2CCN(Cc3ccccc3)CC2)cc1OC  12%
33. C=CCn1c(-c2ccoc2)n[nH]c1=S  12%
34. Cn1c(=O)n(C)c2cc(S(=O)(=O)Nc3ccc(F)cc3)ccc21  11.9%
35. Cc1c(C#N)c2ccccc2n1CC(=O)O  11.6%
36. CN(C)/C=N/c1c(C#N)cnn1-c1ccccc1  11.3%
37. COc1ccc2cc(C(=O)O)n(CC(=O)c3ccccc3)c2c1  10.9%
38. c1ccc(-c2ccc3c(c2)NC(C2Nc4cc(-c5ccccc5)ccc4O2)O3)cc1 (centres unmarked)  10.8%
39. Cn1nnnc1SCC(=O)N1CCCc2ccccc21  10.7%
40. NS(=O)(=O)c1ccc(CCNC(=O)C(=O)NCC2OCCN2S(=O)(=O)c2cccs2)cc1 (centres unmarked)  10.5%
41. COc1ccc(CC(=O)NNC(=S)NCC2CC2)cc1OC  10.1%
42. CC(=O)Oc1ccc(C(=O)OCC(=O)c2c(N)n(C)c(=O)n(C)c2=O)cc1OC(C)=O  9.99%
43. CCOCCCNC(=S)N1CCC(C(=O)c2ccc(C)cc2)CC1  9.71%
44. Cc1ccc(C(=O)NCCC2=CCCCC2)cc1S(=O)(=O)N1CCCCC1  9.63%
45. CC(C(=O)NCCC1=CCCCC1)c1ccc([N+](=O)[O-])cc1 (centres unmarked)  9.6%
46. CCCn1c(C(=O)c2ccc(OC)cc2)nc2ccccc21  9.45%
47. O=C(COC(=O)C1CCN(c2ccc(C(F)(F)F)cn2)CC1)NC1CCCCC1  9.1%
48. CC(=O)N(CCN(C)C)c1nc2cc3c(cc2s1)OCCO3.Cl  9.03%
49. CCn1c(C)c(C(C)=O)c(SC)nc1=S  8.57%
50. CCn1nccc1C(=O)Nc1ccc(C)c(C)c1  8.5%
51. CN(C(=O)/C(N=Nc1cccc(C(F)(F)F)c1)=C(\O)C(F)(F)F)c1ccccc1  8.42%
52. Cc1c(Cl)cccc1S(=O)(=O)N1CCC(C(=O)NNC(=O)C2CC2)CC1  7.92%
53. Cc1ccc(NC(=O)NC2(C(=O)NCc3ccco3)CCCCC2)cc1  7.84%
54. COc1ccccc1CCNC(=O)CCC(=O)N1CC2C[C@@H](C1)Cn1c2cccc1=O  7.67%
55. COc1ccc(/C=N/NC(=O)CN2CCCc3ccccc32)c(OC)c1  7.48%
56. Cc1ccc(C(=O)/C=C\NCc2ccccc2)cc1  7.27%
57. O=C(Cn1c(=S)[nH]c2ccccc21)c1ccccc1  6.39%
58. Cc1ccc(C)c(N(CC(=O)NC2CCCC2)C(=O)CNC(=O)c2cccs2)c1  5.87%
59. CCN1C(=O)/C(=C2/C=CC=CN2C)OC1=S  5.69%
60. C=CCCC(=O)N1CCCC(C(=O)c2cccc(OC)c2)C1 (centres unmarked)  4.92%
61. COc1ccc(/C=C2/SC(=O)N(CCC(=O)Nc3ccc(S(=O)(=O)Nc4nccs4)cc3)C2=O)cc1  4.87%
62. Cc1nn(C)c(C(=O)N2CCc3ccccc32)c1Br  4.79%
63. CCc1ccc(CNc2ccc3c(c2)ncn3CC)cc1  4.56%
64. O=C(CSC1=NS(=O)(=O)c2cc(F)ccc2N1)NCc1ccccc1  4.41%
65. Cc1ccc(-c2cc(C(=O)NCc3ccc4c(c3)OCO4)[nH]n2)c(O)c1C  4.07%
66. COc1ccc(C(=O)Nc2ccc(C)cn2)c(OC)c1  3.95%
67. COc1ccccc1Nc1ccc(C(=O)NCc2cccs2)cn1  3.94%
68. CCCc1cc(=O)[nH]c(SCC(=O)N(CC(C)C)C2CCS(=O)(=O)C2)n1 (centres unmarked)  3.9%
69. O=C(Nc1ccccc1F)NC1CCCc2ccccc21 (centres unmarked)  3.4%
70. COC(=O)c1ccc(C2C(C(=O)c3ccco3)=C(O)C(=O)N2CC2CCCO2)cc1 (centres unmarked)  3.07%
71. COc1cc(NC2c3ccccc3C(=O)N2Cc2ccccc2Cl)cc(OC)c1 (centres unmarked)  2.53%
72. Cc1cc(C(=O)CN2C(=O)C(=O)N(CC(C)C)C2=O)c(C)n1-c1ccccc1F  2.27%
73. COC(Cc1n[nH]c(=S)n1-c1ccccc1)OC  1.63%
74. COc1ccccc1NC(=O)CCC(=O)OCc1ccc(Cl)cc1  1.54%
75. CC(C)c1nnc(NC(=O)CCC(=O)NC2CCCCCCC2)s1  0.952%
76. COc1ccc(C2C(C(N)=O)=C(C)Nc3nc(-c4ccccc4Cl)nn32)c(OC)c1 (centres unmarked)  0.881%
77. Cc1ccc(NC(=O)/C=C/c2cccs2)c([N+](=O)[O-])c1  0.868%
78. COCCN(C(=O)c1ccc(COc2ccccc2)o1)c1c(N)n(CC(C)C)c(=O)[nH]c1=O  0.527%
79. CC(C)CN1C2CCCC1CC(NC(=S)NCc1ccco1)C2 (centres unmarked)  0.305%
80. O=C(CC1Sc2ccccc2NC1=O)OC(C(=O)NCCc1ccccc1)c1cccnc1 (centres unmarked)  0.0089%
81. O=c1cc(N2CCc3ccccc3C2)[nH]c(=O)n1-c1ccc(Cl)cc1  -1.15%
82. O=C(/C=C/c1ccco1)c1ccc(O)cc1  -3.25%
83. CN(C)c1ccc(NC(=O)c2ccc([N+](=O)[O-])cc2Cl)cc1  -3.73%
84. CCN(CC)CCCn1c(=S)[nH]c2ccccc2c1=O  -4.25%
85. O=C(Nc1ccc(Oc2ccccc2)nc1)C1CCN(Cc2ccccc2)CC1  -4.63%
86. Cc1cc(OCC(=O)Nc2ccc(CN3CCOCC3)cc2)ccc1Cl  -6.46%
87. c1ccc(Cn2c(NCc3ccccn3)nc3ccccc32)cc1  -15.3%
88. Cc1ccccc1-c1ccc(Nc2ccc(N3CCOCC3)cc2)nn1  -38.5%
89. O=C(/C=C/c1ccc(F)cc1)Nc1cc(S(=O)(=O)N2CCOCC2)ccc1N1CCCC1  -60.3%
